Where a chain is given by its changes, count along the chain named. No constants are given. Whether binding was seen depends on the method and setting. Binding seen in cells or lysates may run through a third protein. Some binding calls cover weakened binding; strength is not graded here. Tags and fused reporters may be left off the sequences shown. Each block holds one molecule with its values, some of them ahead of it.
Legend:
[1] = molecular target: T1, 3xFLAG-ATF7IP K16R mutant (stably expressed in Atf7ip KO mESCs) (mouse) (UniProt Q7TT18); test: co-IP; Atf7ip KO mESCs rescued with 3xFLAG-ATF7IP WT, K16R or Δ(1–16); anti-FLAG M2 beads; endogenous partners detected by western blot
T1 sequence: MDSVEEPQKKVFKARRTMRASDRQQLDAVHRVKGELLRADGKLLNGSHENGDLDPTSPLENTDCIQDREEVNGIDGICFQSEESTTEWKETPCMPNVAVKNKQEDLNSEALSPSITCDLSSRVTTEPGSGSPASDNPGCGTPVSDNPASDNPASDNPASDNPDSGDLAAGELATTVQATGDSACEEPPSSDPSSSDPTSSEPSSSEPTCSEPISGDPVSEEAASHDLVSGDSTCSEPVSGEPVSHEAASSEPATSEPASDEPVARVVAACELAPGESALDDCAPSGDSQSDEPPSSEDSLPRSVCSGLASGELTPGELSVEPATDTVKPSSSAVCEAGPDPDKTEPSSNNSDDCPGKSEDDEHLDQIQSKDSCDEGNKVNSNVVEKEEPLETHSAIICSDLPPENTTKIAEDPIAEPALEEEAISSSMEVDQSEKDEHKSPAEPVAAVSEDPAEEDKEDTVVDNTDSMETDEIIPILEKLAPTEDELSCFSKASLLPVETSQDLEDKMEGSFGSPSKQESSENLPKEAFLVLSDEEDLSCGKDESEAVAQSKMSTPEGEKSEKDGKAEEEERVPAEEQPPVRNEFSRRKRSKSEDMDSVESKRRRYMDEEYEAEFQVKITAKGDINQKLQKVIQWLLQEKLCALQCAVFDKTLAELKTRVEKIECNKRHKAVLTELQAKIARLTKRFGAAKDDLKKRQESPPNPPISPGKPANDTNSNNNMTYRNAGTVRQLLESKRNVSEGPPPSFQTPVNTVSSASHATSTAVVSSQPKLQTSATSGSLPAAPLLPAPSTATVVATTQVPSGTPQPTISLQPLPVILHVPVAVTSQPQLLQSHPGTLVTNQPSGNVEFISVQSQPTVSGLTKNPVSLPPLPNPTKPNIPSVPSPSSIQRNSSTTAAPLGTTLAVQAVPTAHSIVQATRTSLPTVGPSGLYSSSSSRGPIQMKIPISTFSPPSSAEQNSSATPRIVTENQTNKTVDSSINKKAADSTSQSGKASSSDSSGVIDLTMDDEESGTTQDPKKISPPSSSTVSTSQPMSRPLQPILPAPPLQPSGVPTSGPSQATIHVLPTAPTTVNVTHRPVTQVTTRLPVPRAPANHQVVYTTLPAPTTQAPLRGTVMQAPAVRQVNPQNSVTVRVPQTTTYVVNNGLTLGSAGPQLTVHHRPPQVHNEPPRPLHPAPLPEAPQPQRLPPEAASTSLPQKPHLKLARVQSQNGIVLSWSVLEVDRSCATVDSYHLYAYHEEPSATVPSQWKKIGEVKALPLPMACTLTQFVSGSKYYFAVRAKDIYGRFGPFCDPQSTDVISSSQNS

Sequences of proteins named here, by UniProt entry; tags and fusion partners are left off.
UniProt Q9Z148: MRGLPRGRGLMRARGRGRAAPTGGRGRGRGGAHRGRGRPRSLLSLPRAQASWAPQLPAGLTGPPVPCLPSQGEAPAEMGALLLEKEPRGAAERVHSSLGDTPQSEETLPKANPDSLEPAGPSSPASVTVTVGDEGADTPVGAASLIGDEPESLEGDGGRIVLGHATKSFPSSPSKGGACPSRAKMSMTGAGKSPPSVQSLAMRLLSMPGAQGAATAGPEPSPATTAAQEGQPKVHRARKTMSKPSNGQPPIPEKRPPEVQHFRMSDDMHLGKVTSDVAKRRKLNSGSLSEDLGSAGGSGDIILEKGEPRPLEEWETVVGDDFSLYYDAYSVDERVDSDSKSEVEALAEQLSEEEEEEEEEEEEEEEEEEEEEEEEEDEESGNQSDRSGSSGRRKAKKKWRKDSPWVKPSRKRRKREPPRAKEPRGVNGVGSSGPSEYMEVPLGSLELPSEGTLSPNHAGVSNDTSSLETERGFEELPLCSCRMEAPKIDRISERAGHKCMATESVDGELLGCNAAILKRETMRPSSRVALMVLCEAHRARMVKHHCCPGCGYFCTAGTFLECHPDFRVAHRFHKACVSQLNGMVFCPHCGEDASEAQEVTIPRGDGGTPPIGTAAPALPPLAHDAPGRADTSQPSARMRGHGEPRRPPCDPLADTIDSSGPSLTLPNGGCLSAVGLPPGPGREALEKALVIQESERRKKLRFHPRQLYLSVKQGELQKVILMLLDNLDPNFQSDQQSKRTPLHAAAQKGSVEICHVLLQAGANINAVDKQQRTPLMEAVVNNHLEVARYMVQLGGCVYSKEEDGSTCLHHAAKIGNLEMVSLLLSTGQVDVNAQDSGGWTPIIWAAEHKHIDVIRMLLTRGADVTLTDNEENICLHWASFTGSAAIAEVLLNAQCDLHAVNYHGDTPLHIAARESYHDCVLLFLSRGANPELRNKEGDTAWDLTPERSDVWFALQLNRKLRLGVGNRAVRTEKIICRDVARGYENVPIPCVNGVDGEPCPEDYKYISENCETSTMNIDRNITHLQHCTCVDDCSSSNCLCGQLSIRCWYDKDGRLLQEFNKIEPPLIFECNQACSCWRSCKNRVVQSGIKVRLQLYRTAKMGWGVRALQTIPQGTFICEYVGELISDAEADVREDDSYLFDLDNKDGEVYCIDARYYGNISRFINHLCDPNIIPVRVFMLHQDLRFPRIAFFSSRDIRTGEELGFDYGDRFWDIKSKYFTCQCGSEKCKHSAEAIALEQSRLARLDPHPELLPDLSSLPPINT

[2] = molecular target: T2, V5-MPP8 W80A mutant (expressed in mESCs) (mouse) (UniProt Q3TYA6); test: co-IP; WT mESCs expressing V5-MPP8 WT or W80A; anti-V5 antibody; endogenous ATF7IP detected by western blot
T2 sequence: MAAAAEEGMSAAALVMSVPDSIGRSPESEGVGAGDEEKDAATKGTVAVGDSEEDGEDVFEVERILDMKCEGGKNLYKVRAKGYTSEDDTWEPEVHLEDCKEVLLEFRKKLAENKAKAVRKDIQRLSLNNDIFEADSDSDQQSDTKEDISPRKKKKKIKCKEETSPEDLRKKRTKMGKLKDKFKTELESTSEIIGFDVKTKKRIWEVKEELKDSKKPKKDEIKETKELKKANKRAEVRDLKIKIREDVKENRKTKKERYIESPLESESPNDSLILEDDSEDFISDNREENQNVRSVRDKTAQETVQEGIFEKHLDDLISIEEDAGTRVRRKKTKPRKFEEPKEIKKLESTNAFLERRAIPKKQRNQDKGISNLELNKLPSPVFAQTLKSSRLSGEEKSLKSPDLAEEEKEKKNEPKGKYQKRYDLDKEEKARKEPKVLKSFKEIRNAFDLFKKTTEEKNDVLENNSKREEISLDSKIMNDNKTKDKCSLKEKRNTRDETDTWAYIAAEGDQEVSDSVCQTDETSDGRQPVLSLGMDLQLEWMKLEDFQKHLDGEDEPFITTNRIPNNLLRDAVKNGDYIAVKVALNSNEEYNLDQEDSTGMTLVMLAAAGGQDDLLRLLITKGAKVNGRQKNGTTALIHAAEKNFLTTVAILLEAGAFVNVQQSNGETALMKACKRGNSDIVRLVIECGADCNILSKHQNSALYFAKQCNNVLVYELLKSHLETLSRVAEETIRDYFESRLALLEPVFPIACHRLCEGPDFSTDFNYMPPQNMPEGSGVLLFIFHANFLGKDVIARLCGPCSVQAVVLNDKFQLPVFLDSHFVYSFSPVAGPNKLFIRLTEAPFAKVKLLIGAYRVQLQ

[3] = molecular target: T3, V5-MPP8 WT (expressed in mESCs) (mouse) (UniProt Q3TYA6); test: as above
T3 sequence: T2 sequence with A80W

binding [1]: binds
Molecule: G9a (endogenous in mESCs) (from UniProt Q9Z148 1-1263) (enzyme)

binding [2]: no binding
binding [3]: binds
B1: ATF7IP, endogenous in WT mESCs (protein, UniProt Q7TT18 1-1306)
chain: T1 sequence with R16K
modifications: tri-methylated lysine at K16 (shown on 3xFLAG-ATF7IP in WT mESCs, ~ 92%)

Reference: PMC6172828
